Where two headings read alike, the source gives them in different places. These are yes or no findings as the source states them, for the method shown. Binding seen in cells or lysates may run through a third protein. Some entries that bind do so weakly or less than the wild type.

Amino acid sequences for entries named in this document (tags omitted). A change or cut given only in a name is not applied to a line headed by its entry.
UniProt P19484: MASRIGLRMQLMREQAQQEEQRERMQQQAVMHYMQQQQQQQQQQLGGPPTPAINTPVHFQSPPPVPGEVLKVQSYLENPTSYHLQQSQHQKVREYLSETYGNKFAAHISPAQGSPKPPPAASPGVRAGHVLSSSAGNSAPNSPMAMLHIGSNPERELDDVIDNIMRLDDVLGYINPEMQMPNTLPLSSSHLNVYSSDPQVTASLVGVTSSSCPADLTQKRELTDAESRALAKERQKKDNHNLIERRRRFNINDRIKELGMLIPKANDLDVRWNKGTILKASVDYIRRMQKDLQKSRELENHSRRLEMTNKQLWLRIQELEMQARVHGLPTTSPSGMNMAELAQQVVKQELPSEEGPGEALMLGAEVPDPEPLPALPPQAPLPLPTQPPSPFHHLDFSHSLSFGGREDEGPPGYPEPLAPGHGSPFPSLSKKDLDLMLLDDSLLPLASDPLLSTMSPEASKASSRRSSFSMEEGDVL
UniProt P36402: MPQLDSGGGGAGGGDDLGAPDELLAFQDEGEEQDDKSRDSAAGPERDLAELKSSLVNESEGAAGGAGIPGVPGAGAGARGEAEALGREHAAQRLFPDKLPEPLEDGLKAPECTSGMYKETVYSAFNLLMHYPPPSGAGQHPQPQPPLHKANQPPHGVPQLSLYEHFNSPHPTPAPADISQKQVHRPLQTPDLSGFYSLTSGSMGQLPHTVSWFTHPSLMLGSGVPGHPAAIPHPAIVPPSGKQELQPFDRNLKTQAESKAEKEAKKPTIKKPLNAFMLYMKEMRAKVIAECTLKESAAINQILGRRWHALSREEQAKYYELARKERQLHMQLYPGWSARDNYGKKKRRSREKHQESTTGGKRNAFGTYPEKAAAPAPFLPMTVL
UniProt O95271: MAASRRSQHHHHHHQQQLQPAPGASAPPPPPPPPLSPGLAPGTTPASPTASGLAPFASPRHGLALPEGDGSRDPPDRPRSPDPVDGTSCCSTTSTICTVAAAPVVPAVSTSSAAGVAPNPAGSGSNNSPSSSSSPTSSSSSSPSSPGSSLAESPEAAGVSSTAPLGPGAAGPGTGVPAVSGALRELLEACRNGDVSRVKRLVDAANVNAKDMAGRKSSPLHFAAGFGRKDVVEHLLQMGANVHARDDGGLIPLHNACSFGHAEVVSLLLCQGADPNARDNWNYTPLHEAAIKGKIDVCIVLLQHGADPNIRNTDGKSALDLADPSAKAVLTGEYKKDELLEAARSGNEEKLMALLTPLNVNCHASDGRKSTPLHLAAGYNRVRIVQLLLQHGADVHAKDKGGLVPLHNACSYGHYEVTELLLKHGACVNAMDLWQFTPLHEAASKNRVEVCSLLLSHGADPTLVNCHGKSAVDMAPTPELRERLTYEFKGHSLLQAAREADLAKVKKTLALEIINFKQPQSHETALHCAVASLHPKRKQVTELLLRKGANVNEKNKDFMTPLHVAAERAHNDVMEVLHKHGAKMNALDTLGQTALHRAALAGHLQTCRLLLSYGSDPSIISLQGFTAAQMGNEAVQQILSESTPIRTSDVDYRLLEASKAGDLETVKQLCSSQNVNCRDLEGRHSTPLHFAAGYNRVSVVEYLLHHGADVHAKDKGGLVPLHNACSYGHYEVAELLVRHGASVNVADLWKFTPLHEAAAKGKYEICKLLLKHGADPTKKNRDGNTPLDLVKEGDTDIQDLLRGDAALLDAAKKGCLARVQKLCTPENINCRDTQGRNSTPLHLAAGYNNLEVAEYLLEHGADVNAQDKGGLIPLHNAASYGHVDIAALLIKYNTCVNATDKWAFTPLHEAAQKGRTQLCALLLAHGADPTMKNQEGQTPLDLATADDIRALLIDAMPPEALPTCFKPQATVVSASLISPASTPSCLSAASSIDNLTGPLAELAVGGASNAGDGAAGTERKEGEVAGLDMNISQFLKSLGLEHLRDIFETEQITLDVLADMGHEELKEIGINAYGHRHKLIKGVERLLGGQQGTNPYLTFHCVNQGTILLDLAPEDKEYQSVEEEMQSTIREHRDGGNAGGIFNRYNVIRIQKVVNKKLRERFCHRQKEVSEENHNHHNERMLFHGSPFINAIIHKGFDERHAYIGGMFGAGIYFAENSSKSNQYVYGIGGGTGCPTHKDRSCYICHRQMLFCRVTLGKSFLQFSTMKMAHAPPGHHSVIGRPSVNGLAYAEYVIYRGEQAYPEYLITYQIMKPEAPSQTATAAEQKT
UniProt O15169: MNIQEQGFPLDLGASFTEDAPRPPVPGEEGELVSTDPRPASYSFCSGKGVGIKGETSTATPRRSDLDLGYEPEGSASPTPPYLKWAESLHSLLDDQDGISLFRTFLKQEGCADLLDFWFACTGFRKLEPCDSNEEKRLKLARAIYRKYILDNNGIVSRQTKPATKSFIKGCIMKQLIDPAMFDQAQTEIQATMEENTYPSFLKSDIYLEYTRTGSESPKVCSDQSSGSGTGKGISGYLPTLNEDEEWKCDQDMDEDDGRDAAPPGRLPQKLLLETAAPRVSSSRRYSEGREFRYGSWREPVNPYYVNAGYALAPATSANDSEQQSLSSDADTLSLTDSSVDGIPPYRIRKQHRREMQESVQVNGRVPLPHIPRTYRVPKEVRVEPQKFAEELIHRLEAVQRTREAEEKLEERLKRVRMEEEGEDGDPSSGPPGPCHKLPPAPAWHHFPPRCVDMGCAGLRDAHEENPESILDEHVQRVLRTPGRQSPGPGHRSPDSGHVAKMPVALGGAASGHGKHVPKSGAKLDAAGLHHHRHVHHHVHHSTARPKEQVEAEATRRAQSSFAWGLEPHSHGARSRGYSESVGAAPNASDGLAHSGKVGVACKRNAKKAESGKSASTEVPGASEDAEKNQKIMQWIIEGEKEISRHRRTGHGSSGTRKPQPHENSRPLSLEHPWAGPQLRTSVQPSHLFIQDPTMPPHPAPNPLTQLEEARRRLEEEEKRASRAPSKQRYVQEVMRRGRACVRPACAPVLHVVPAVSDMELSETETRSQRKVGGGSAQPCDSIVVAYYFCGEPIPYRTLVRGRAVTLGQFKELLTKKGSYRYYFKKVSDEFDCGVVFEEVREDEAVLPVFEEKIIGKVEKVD
UniProt Q9UJU2: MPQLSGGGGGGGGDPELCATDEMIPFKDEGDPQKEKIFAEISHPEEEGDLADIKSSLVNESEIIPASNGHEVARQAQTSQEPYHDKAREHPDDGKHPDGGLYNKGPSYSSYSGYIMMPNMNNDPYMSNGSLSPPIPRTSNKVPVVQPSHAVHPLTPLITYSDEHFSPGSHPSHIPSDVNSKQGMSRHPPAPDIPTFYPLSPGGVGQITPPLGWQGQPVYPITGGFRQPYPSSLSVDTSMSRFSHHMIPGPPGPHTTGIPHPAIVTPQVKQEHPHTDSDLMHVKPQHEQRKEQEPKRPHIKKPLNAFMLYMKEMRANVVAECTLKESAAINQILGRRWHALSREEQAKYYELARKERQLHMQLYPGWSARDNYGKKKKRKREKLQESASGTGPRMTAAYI

In experiment [1] the target is TFEB-EGFP (UniProt P19484). Nature of the experiment: co-IP; HEK293T cells co-transfected; lysates (20 mM Tris-Cl pH 7.4, 150 mM NaCl, 1% Triton X-100) immunoprecipitated with anti-GFP antibody overnight at 4 °C, Protein G or A/G beads, immunoblot; in some panels with co-expressed VSVG-LRP6 or Flag-TNKS1, or treatment with XAV939 or MG132. In general terms: In western blotting, separated proteins are transferred to a membrane and probed.

A further experiment concerns the target Flag-TFEB (UniProt P19484). Nature of the experiment: co-IP; HEK293T cells expressing Flag-TFEB and Myc-Axin1, treated with Wnt3a-CM; immunoprecipitation with anti-Flag antibody, immunoblot.
Another experiment has as its target TFEB V65D/G67V/E68A-EGFP (UniProt P19484). Description: co-IP; HEK293T cells co-transfected; lysates (20 mM Tris-Cl pH 7.4, 150 mM NaCl, 1% Triton X-100) immunoprecipitated with anti-GFP antibody overnight at 4 °C, Protein G or A/G beads, immunoblot; in some panels with co-expressed VSVG-LRP6 or Flag-TNKS1, or treatment with XAV939 or MG132.
For experiment [2], the target named is TFEB-EGFP (UniProt P19484). The description is as above. This is another data set of the same source.

As to TCF1 (from UniProt P36402 1-384), the binding result with TFEB-EGFP [1] is given as “binds”.

Take “Flag-TNKS1 (from UniProt O95271 1-1327) (enzyme)”: in the experiment with TFEB-EGFP [1], the binding result is recorded as “binds”.

As for Myc-Axin1 (from UniProt O15169 1-862), the binding entry in the experiment with Flag-TFEB, with TFEB V65D/G67V/E68A-EGFP and with TFEB-EGFP [1] was “binds” in each case.

As for LEF1 (from UniProt Q9UJU2 1-399), the binding result with TFEB-EGFP [1] is “binds”.

B1: TCF3 (protein, UniProt Q9HCS4 1-588)
chain: MPQLGGGGGGGGGGSGGGGGSSAGAAGGGDDLGANDELIPFQDEGGEEQEPSSDSASAQRDLDEVKSSLVNESENQSSSSDSEAERRPQPVRDTFQKPRDYFAEVRRPQDSAFFKGPPYPGYPFLMIPDLSSPYLSNGPLSPGGARTYLQMKWPLLDVPSSATVKDTRSPSPAHLSNKVPVVQHPHHMHPLTPLITYSNDHFSPGSPPTHLSPEIDPKTGIPRPPHPSELSPYYPLSPGAVGQIPHPLGWLVPQQGQPMYSLPPGGFRHPYPALAMNASMSSLVSSRFSPHMVAPAHPGLPTSGIPHPAIVSPIVKQEPAPPSLSPAVSVKSPVTVKKEEEKKPHVKKPLNAFMLYMKEMRAKVVAECTLKESAAINQILGRKWHNLSREEQAKYYELARKERQLHSQLYPTWSARDNYGKKKKRKREKQLSQTQSQQQVQEAEGALASKSKKPCVQYLPPEKPCDSPASSHGSMLDSPATPSAALASPAAPAATHSEQAQPLSLTTKPETRAQLALHSAAFLSAKAAASSSGQMGSQPPLLSRPLPLGSMPTALLASPPSFPATLHAHQALPVLQAQPLSLVTKSAH
Regarding B1, the binding result with TFEB-EGFP [2] is given as “no binding”.

(Values after PMC8408140 (2021).)
